# Measurements reported in the supplement of paper PMC11417369.
# This is one part of the list.
# Test system: PfAP2-HC AP2 domain (GST-tagged)
# Assay: gcPBM binding intensity (ln(normalized median fluorescence intensity)); higher = stronger DNA binding
# How it was run: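 An Agilent 4 × 180k array carrying primer-extended double-stranded 36-bp intergenic genomic probes and negative controls received GST-tagged P. falciparum DNA-binding domains expressed in E. coli, about 25 μg on average, for 1 h. The binding buffer contained 1× PBS, 1% milk, 0.2 mg/ml BSA, 0.5% salmon testes DNA and 0.03% Triton X-100. Binding intensity is the top Masliner-normalised natural-log median intensity across replicate spots of either probe orientation, read after Alexa488 anti-GST antibody staining and a 488 nm scan.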
row,Sequence,gcPBM binding intensity (ln)
1,TATTTTGATTATTCAGTGTATAAATATATATATATA [CACACA_negctrl_site545],9.52
2,CCAATGTTTTCTTGTGTACACATCATTAAAGAAAAA [CACACA_site5300],9.52
3,ATTCTATATGAAAAATGTACAAATAAAAATTCTAAG [XGTACX_site8900],9.59
4,CATGAAAATATTATGTGTACTTAATGCACATTCAAA [XGTACX_site1952],9.53
5,TAAAGAGAGACATCAACACACATACGTATGTATAGA [CACACA_site4896],9.87
6,AATATATTGTTTCCTGATATTAAATTCAATTTAATG [GTGCAC_negctrl_site22],9.43
7,ATTTACCTATATATTTGTACTTACATAATGCTACCT [XGTACX_site2693],9.74
8,TAAAAAAAAATATATAAACACACATATTTATATACA [CACACA_site8469],9.62
9,TATATATATTTTGGCTGTACATCAGCGTATATTTTT [XGTACX_site3233],9.7
10,AATAAATATATACATTGTACATATATAATATATATA [XGTACX_site1458],9.7
11,TAAATTATAATATGCACACAAAATGTTATATTAAAA [CACACA_site376],9.67
12,CCTATCCATGCATATACACACATATCTATTTATATA [CACACA_site6886],10
13,AAAAAAAAACAAAAAAGTACAAAATAAAAATACGTT [XGTACX_site4566],9.75
14,CTCTTCATATATAATTGTACACACAAAAACGACATT [XGTACX_site4287],9.81
15,ATAAGAATCATATTTAAACACACATACATATATATA [CACACA_site9106],10.1
16,ATTAAATAAACCATTACACACTTTTATGTTTTGAAA [CACACA_site1143],9.61
17,TTTTTATTGGTGAATACACACGTATATATATATTAT [CACACA_site8756],9.84
18,AAAAAAAAAAAATACACACACATAAAAAAAAAAATA [CACACA_site1858],10.9
19,ATTATATTAACAATGACATGCAATTCTTAATCCTTA [TGCATGCA_site648],9.56
20,AAAAAAAAATTGTGTACACATAATTATATCATATGT [CACACA_site4500],9.77
21,ATGGATAATAAGTTTACACACAAAAAAAAAGAAAAA [CACACA_site861],9.87
22,AAATAAAATAAATAATATAAAATAATATATAAAAAA [CACACA_negctrl_site1777],9.82
23,TTTTGTTAAAAAGATGTATATTTTATAAATATTTAT [CACACA_negctrl_site101],9.44

row,Sequence,gcPBM binding intensity (ln)
1,CACAAACAAAAACACACACACACACCGACAAAAATG [CACACA_site5362],10.6
2,AGAAAGAAGATATATACACACAAAAAAAGATATATA [CACACA_site6779],9.92
3,AAAAGAAGATAATACAGTACAGAATAATATAAAATA [XGTACX_site5962],9.81
4,TATAAATATTTATACACACACACATTAATACCTATA [CACACA_site7604],10.4
5,TTCTTTCTAGAATATTGTACATATATTGTTATTATA [XGTACX_site8425],9.72
6,GTCGAGGATATATAAAGTACATATATATATATGATA [XGTACX_site1128],9.6
7,TAATGTATCTAAAATTGTACAAATATAAATATAAAT [XGTACX_site2764],9.7
8,TAGTTAGCCCAAGGGGTGCTAATTACTATCTAAATA,9.4
9,CATACATATAAACACACACACACACCCACCCACAAA [CACACA_site8059],10.6
10,AACACCAATTCATATGCACACACATCTGCATATTAT [CACACA_site8523],10.3
11,TTTATAAATATTCTCACACACTTTTTATTTTAACAA [CACACA_site6454],9.77
12,TATAGAAGCAAATTATGTACACAATATGGAAAATCA [XGTACX_site3345],9.85
13,TACAGTTTTTCTTTGAATTTATCAAGTTTTTTTCCC [XGTACX_negctrl_site60],9.52
14,ATTTAAAAAATATATTGTACATATTTTATTATGTTT [XGTACX_site2984],9.69
15,CACTAAATAAGGAAAGTGCATAAAATAAAGGTTATA [GTGCAC_site9793],9.69
16,TAGTTACCTTAATATTGTACTTTTCTTTCATATATG [XGTACX_site1309],9.66
17,GTGTCAAATTTTATAACACACAAAAGGTTATATAAG [CACACA_site7839],9.66
18,ATAGTTTCTGGTAGCTGTACGAGTCGTAGAGTGCAG [XGTACX_site2022],9.75
19,CATTATTATTTTATAACACACACATATATATTATAT [CACACA_site8405],10.2
20,ATGTTTTTTATTCTTCGTACGTATGAACGATAGTGT [XGTACX_site4225],9.74
21,AAACGTATGTTATTTACACACCCTTCCACTTTTATA [CACACA_site3337],10
22,TATAAAATAAGACATGCATGTTATACATATATATTT [TGCATGCA_site156],10
23,AAATTAAAAAAAAATAAATAAAAAAAAAAAAAAAAT [CACACA_negctrl_site1611],9.66

row,Sequence,gcPBM binding intensity (ln)
1,TTTTTTTTTTCTACAAGTACATATTTTCATTTAACA [XGTACX_site6621],9.6
2,AAAAAAAAAAAAAAATGTACATATATATATTATAAA [XGTACX_site518],9.5
3,ATGTGCAAATATTAAAGTACTAAATTTTATTATTTT [XGTACX_site7306],9.66
4,ATAAATACATATAAAAGTACACACACACACATATAT [XGTACX_site1744],10.9
5,TGAAATTTCAATACATGTACATATAAAAAAAAAAAA [XGTACX_site4424],9.67
6,TGTATATGTGAAGCAAGGGATGCGGCAGACATAACA [CACACA_negctrl_site1339],9.95
7,GGGTATATATTATTATGTACACATGTATAAAATAAG [XGTACX_site2633],9.65
8,ATATTACATAATATATGTACACACGCAAATACTTAT [XGTACX_site671],9.9
9,CAGATAGACTTATATGCATGCATTCACCTGCCAACA [TGCATGCA_site158],9.66
10,TAAGCATAAATGTATACATGCGATGCATACACATAT [TGCATGCA_site749],9.55
11,ATGAAATTATATTGGGGTACGTCAAAAAAGGAGATA [XGTACX_site7451],9.59
12,TTTGTGTATATATAATGTACATTATATTTTTATTAT [XGTACX_site6506],9.88
13,ATTAAAAAAAAAGAGCGTACAAATAATTACTTCTTT [XGTACX_site8262],9.52
14,TATAAATTTATAAATAGTACATATATTTATATATAT [XGTACX_site6433],9.54
15,TATATATATGGACACACACACACATATATATATATA [CACACA_site6121],11.3
16,AAAAAAAATATACATACATGCATACATAAGTTTCTA [TGCATGCA_site998],9.62
17,AAAAAAAAAAAAATTACACACATACATATAATAATA [CACACA_site8680],9.89
18,ATATTAAGAATAAACAGTACATATAATAAATACCAT [XGTACX_site5933],9.86
19,AAAAAAAAAAAAAAATGTACATATATATATATATTA [XGTACX_site7330],9.45
20,ATAAAATAAGACAAAAAAAAAATATATATATATATA [TGCATGCA_negctrl_site314],9.86
21,CCTTGTCTTTTTTTTTTTTTTTTTTCTTCTTATTTT [GTGCAC_negctrl_site523],9.64
22,AGTAGATATAATATATGTACATATATATATATATAT [XGTACX_site7186],9.72
23,AATAAATTTAAACACACACACACATATATATATATA [CACACA_site4621],10.4

row,Sequence,gcPBM binding intensity (ln)
1,TATATACATAAACACACACACACATATATATATATA [CACACA_site8707],10.4
2,TGCATATACTCAAGCACACATATATATATATATATA [CACACA_site4733],9.71
3,AATTAATGGTTAAAGGTGCACAATACATATATTACA [GTGCAC_site9943],9.95
4,ATATATTGAAAATATAGTACATAATAAATGTTCTTT [XGTACX_site8474],9.52
5,CCGTACAATTTTGTCACACATAAAATACTTATGTAT [CACACA_site4871],9.77
6,AATGTAGTTTATCGATGTACACAAAATAAAGAGAAG [XGTACX_site6956],9.81
7,TAGTATTTATATGATTAACACACATATGGGTATTAA [CACACA_site8363],9.62
8,ATAATGTTCACATAGGTGCACTAATATAATTATCCA [GTGCAC_site9981],9.69
9,AAAAAAAAAAAAAAAAGTACTCAATAATAATTACAT [XGTACX_site670],9.46
10,CATAATAGTTATAAAATACACACCAGGCATGATAAA [CACACA_site329],9.73
11,ATATACACCTGAGAGGTGCATATATATAAAATTTAC,9.52
12,AAAGTAAAAGGGTTTGGTACACATATAATATATTAG [XGTACX_site6036],9.73
13,CATTTATATAAAGAATGTACACACAGAAATGCACAC [XGTACX_site4718],10
14,ATAACTTTTATTTGTACACACATACATCTATATTAT [CACACA_site6595],10.2
15,AGTAAAAGAAAGCACACACACATGTATTTATGTATG [CACACA_site5998],10.9
16,GTAATTTTTTTCTATACACACATATATATAATATAT [CACACA_site2655],9.96
17,AATATAAATATAAATATAAATAAATAAATAAATAAA [CACACA_negctrl_site291],9.75
18,TATACGTGTTTTATTTGTACTTAAGCAGGTAAGCAT [XGTACX_site193],9.55
19,CTATATATTTTTTCTTAACACACATATATAAAATAA [CACACA_site9165],9.34
20,TATATGTATCCATTATGTACATAATAGTAATATAAT [XGTACX_site4008],9.72
